According to PMC4336329 (PLoS ONE, 2015):
About 14,000 (4.5%) of roughly 310,000 compounds showed an effect of 50% or more. The effect is printed as a negative number. The list shows a part of the results.
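Further: peak tail current of the secondary pulse compared with the same well before compound.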

The compounds below were run against human ether-à-go-go-related gene (hERG) potassium channel (human, UniProt Q12809) (assay: primary screen, population patch clamp on CHO cells stably expressing hERG).
Chain of human ether-à-go-go-related gene (hERG) potassium channel (Q12809 whole entry, looked up): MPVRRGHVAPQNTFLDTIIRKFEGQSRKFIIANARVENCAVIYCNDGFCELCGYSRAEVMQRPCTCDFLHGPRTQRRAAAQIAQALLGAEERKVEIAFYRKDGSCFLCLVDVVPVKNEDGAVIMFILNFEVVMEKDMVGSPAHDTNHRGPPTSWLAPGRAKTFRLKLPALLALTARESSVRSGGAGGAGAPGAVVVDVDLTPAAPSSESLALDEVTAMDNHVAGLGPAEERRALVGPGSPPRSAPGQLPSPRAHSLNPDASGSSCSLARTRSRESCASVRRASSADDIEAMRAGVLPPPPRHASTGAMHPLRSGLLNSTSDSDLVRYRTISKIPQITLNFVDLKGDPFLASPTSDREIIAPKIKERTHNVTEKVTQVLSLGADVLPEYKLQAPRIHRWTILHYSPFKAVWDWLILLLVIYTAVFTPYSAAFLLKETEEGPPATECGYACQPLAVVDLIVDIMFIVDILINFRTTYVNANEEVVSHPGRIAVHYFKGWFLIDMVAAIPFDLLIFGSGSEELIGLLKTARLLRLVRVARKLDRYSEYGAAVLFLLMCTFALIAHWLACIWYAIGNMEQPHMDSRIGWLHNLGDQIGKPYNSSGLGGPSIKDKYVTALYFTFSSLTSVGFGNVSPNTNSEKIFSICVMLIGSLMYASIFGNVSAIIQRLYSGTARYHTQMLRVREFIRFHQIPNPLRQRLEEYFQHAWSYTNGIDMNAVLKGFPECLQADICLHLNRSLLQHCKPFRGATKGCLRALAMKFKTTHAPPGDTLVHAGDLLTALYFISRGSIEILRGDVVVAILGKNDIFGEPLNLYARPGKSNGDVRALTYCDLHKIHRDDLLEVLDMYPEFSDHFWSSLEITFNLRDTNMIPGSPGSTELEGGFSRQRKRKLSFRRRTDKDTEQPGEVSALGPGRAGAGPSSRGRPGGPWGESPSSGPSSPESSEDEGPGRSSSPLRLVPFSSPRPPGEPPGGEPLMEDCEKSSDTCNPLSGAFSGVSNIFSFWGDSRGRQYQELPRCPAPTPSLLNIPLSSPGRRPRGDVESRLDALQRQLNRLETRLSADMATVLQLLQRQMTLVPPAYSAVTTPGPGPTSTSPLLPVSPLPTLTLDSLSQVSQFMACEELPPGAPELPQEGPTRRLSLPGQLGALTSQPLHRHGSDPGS
For COc1ccc(N=C2SC(CC(=O)Nc3ccccc3F)C(=O)N2Cc2ccco2)cc1 (stereo not shown), the “hERG current change (%, negative = inhibition) at 10uM” value was 6.8%.
In the case of Cc1c(NC(=O)CSc2nnc(-c3cccc(Cl)c3)o2)c(=O)n(-c2ccccc2)n1C, the “hERG current change (%, negative = inhibition) at 10uM” value is reported as 8.33%.
COc1ccc(C(=O)COC(=O)CCc2nc3ccccc3[nH]c2=O)cc1Br was tested, and the “hERG current change (%, negative = inhibition) at 10uM” value was 24.4%.
For CC(C)C(NC(=O)C1CCCCC1)C(=O)NC1=NCCS1 (stereo not shown), the “hERG current change (%, negative = inhibition) at 10uM” value was 17.8%.
For CC1(C)Cc2c(ccc3ccccc23)-c2nnc(-c3cccnc3)n21, the “hERG current change (%, negative = inhibition) at 10uM” value was -6.37%.
CC(C)c1cccc(C(C)C)c1OCCCCCN1CCOCC1 was tested, and the “hERG current change (%, negative = inhibition) at 10uM” value was -17.2%.
With COc1ccc(F)cc1S(=O)(=O)N1CC(C)CC(C)C1 (stereo not shown) the “hERG current change (%, negative = inhibition) at 10uM” value was -15.5%.
With Cc1ccc(C)c(N2CCN(C(=O)c3cc(S(=O)(=O)N4CCOCC4)cn3C)CC2)c1 the “hERG current change (%, negative = inhibition) at 10uM” value was -19%.
With O=C(O)COc1ccc(C(=O)c2ccccc2)cc1 the “hERG current change (%, negative = inhibition) at 10uM” value was 4.55%.
Cc1cc(C)c(C)c(S(=O)(=O)Nc2ccc(O)cc2)c1C was tested, and the “hERG current change (%, negative = inhibition) at 10uM” value was -22.6%.
In the case of CCC(OC(=O)c1nsc(Cl)c1Cl)C(=O)NC(C)(C)CC (stereo not shown), the “hERG current change (%, negative = inhibition) at 10uM” value is reported as 8.88%.
For Cc1ccc(N=Cc2c(O)n(C)c(=O)n(C)c2=O)cc1, the “hERG current change (%, negative = inhibition) at 10uM” value was 5.28%.
For CCc1cc2ccccc2nc1SCC(=O)Nc1cc(OC)c(OC)cc1C(=O)O, the “hERG current change (%, negative = inhibition) at 10uM” value was -2.33%.
For COc1cc(NC(=O)C(=O)NCCN2CCNCC2)c(OC)cc1Cl, the “hERG current change (%, negative = inhibition) at 10uM” value was 12%.
With C=CCn1c(=O)c2ccccc2n2c(SCC(C)=O)nnc12 the “hERG current change (%, negative = inhibition) at 10uM” value was -7.97%.
O=C(CN1CCN(CN2C(=O)NC3(CCCCCC3)C2=O)CC1)Nc1cccc(F)c1 was tested, and the “hERG current change (%, negative = inhibition) at 10uM” value was 8.88%.
In the case of COc1ccc2c(C)c(CCC(=O)N3C[C@H]4C[C@@H](C3)c3cccc(=O)n3C4)c(=O)oc2c1, the “hERG current change (%, negative = inhibition) at 10uM” value is reported as -34.9%.
CCN(CC)S(=O)(=O)c1cccc(NC(=O)COC(=O)C2COc3ccccc3O2)c1 (stereo not shown) was tested, and the “hERG current change (%, negative = inhibition) at 10uM” value was -2.71%.
In the case of COc1nnc(-c2ccc(C)c(S(=O)(=O)NCCO)c2)c2ccccc12, the “hERG current change (%, negative = inhibition) at 10uM” value is reported as -14.6%.
CCn1c(O)c(C2=NCCCC2)c2ccccc21 was tested, and the “hERG current change (%, negative = inhibition) at 10uM” value was 0.0486%.
With COc1ccc(OC)c2c1sc(=NC(=O)C1COc3ccccc3O1)n2C (stereo not shown) the “hERG current change (%, negative = inhibition) at 10uM” value was -0.698%.
CCOc1ccc(C2C(C#N)=C(N)SC(N)=C2C#N)cc1OCC was tested, and the “hERG current change (%, negative = inhibition) at 10uM” value was 13.5%.
O=C(NC(=O)N1CCCCCC1)c1ccc(Cl)cc1 was tested, and the “hERG current change (%, negative = inhibition) at 10uM” value was 0.216%.
In the case of O=C(Nc1ccc(S(=O)(=O)N2CCCCC2)cc1)C1CC(=O)N(c2ccccc2)C1 (stereo not shown), the “hERG current change (%, negative = inhibition) at 10uM” value is reported as 20.8%.
With O=C(NCCc1c[nH]c2ccccc12)C(=O)NCC(c1ccco1)N1CCN(c2ccccc2)CC1 (stereo not shown) the “hERG current change (%, negative = inhibition) at 10uM” value was -12.4%.
For Cc1cc(OC(C)C)nc(-c2ccccc2O)n1, the “hERG current change (%, negative = inhibition) at 10uM” value was -1.33%.
COCCN(C(=O)CSc1nnc2cc(C)c3ccccc3n12)c1c(N)n(Cc2ccccc2)c(=O)[nH]c1=O was tested, and the “hERG current change (%, negative = inhibition) at 10uM” value was 7.09%.
In the case of CCOC(=O)C1=C(N)Oc2cc(O)ccc2C1c1ccc([N+](=O)[O-])cc1 (stereo not shown), the “hERG current change (%, negative = inhibition) at 10uM” value is reported as -45.5%.
For CCn1cc(C(=O)Nc2cccc(C(=O)OC)c2)c(=O)c2ccc(C)nc21, the “hERG current change (%, negative = inhibition) at 10uM” value was -2.32%.
In the case of COc1ccc(OCC(=O)NNC(=O)c2cccnc2)cc1, the “hERG current change (%, negative = inhibition) at 10uM” value is reported as 15.4%.
O=C(C[n+]1cccc(C(=O)Nc2ccccc2)c1)c1ccc([N+](=O)[O-])cc1.[Br-] was tested, and the “hERG current change (%, negative = inhibition) at 10uM” value was -73.1%.
For Cc1ccccc1-c1cc(C(=O)NCc2cccs2)nn1CC1CC(c2cccc([N+](=O)[O-])c2)=NO1 (stereo not shown), the “hERG current change (%, negative = inhibition) at 10uM” value was 4.08%.
For COc1cccc(CN(C(=O)Cc2c[nH]c3ccccc23)C(C(=O)NC2CCCCC2)c2ccc(C)o2)c1 (stereo not shown), the “hERG current change (%, negative = inhibition) at 10uM” value was 1.18%.
With CCOc1ccc(OCC)c(NC(=O)CN(c2ccc(C)cc2)S(=O)(=O)c2c(C)noc2C)c1 the “hERG current change (%, negative = inhibition) at 10uM” value was 3.31%.
With CCOc1ccc(C(=O)OCC(=O)N2CCCC2)cc1 the “hERG current change (%, negative = inhibition) at 10uM” value was 15.7%.
With S=c1[nH]c(-c2ccccc2)cn1/N=C/c1ccccc1Br the “hERG current change (%, negative = inhibition) at 10uM” value was 13.9%.
In the case of Cc1ccc(-c2nc(CSCC(=O)NCCCN3CCOCC3)c(C)o2)cc1, the “hERG current change (%, negative = inhibition) at 10uM” value is reported as 14.1%.
For Cc1cc(C)n(-c2ccc(C(=O)NCC(c3ccco3)N3CCCC3)cc2)n1 (stereo not shown), the “hERG current change (%, negative = inhibition) at 10uM” value was -5.9%.
For Cc1cc2cc(CCNC(=O)CCc3ccccc3)c(=O)[nH]c2cc1C, the “hERG current change (%, negative = inhibition) at 10uM” value was -1.76%.
Cc1nc2sc(C#N)c(N)c2c2c1CCCC2 was tested, and the “hERG current change (%, negative = inhibition) at 10uM” value was -5.25%.
In the case of Cc1nnc(SCC(=O)Nc2ccc(Cl)cn2)[nH]c1=O, the “hERG current change (%, negative = inhibition) at 10uM” value is reported as 11.3%.
In the case of COc1c(Cl)cc(Cl)cc1C(=O)Nc1ccc(CN2CCOCC2)cc1, the “hERG current change (%, negative = inhibition) at 10uM” value is reported as 8.37%.
O=C(c1cc(Sc2ccc(Cl)cc2)nc2ccccc12)N1CCN(c2ccccn2)CC1 was tested, and the “hERG current change (%, negative = inhibition) at 10uM” value was 7.61%.
